# Source: the supplement of paper PMC10338343
# ± gives the standard deviation. Only a part is listed here, and it is no random draw.
# Test system: MIWI (PIWIL1) piRISC loaded with piRNA #1 (30 nt)
# Test: pre-steady-state target cleavage rate (min^-1); MIWI and MILI are mouse PIWI proteins and EfPiwi is from a freshwater sponge; tags in brackets are library labels; higher = faster piRNA-guided slicing of the target
# Settings: guide: piRNA #1 5'p-UGAGGUAGUAGGUUGUAUAGUAUCCAGAGG; auxiliary factor: 500 nM mouse GTSF1
# Procedure, shortened: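 In this Cleave-'n-Seq assay, uncleaved targets were sequenced and normalised to depth and to weakly complementary targets. They came from a transcribed, DNA-blocked target RNA library […] mixed with 1 nM active affinity-purified piRISC carrying one synthetic guide, with or without 500 nM GTSF1 partner protein, in HEPES–potassium acetate buffer at 33 °C for 0–8 or 0–960 min. After three trials were pooled and k3 was capped at 0.0001 min^-1, the pre-steady-state cleavage rate was obtained from a burst-and-steady-state fit.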
# 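Also: 1 nM active piRISC with 0.1 nM target library at 33 °C single turnover.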
row,Sequence,pre-steady-state target cleavage rate
1,CCUCUGGAUACUAAACAACCUUCUACCUCA,0.626 ± 0.037
2,GGAGACCUUACUUAACAACCUACUACCUCA,0.0631 ± 0.011
3,GGAGACCUAUCUAUACAACCUACUAGGACA,0.00896 ± 0.0047
4,GGAGAGGAUACUUUAGAACCUACUACCUCA,0.919 ± 0.051
5,GGAGACCUAAGUAUACAACGUACUACCUCA,0.00765 ± 0.0024
6,GGAGACCUUACUAUACAACCUUCUAGCUCA,0.121 ± 0.014
7,GGUCUGGAUGCUAUACAACCUACUACCUCA,1.88 ± 0.14
8,CCACUGGAUACUAUACAACCUACUACGUCA,1.46 ± 0.088
9,GGAGAGGAUACUAUACAAACCUACUACCUCA,0.00367 ± 0.0033
10,GGAGACCAUACUAAACAUCCUACUACCUCA,0.68 ± 0.07
11,GGAGACCAUAGAUUACAACCUACUACCUCA,0.0808 ± 0.026
12,GGAGACCUAUGAUAUGUUCCUACUUGGAGA [g7:g12:cont:t1A],< 0.0001
13,GGUCUGGAUACUAUACAACCACUACCUCA,0.00445 ± 0.0024
14,GGAGACCUAUGUUUACAACCUUCUACCUCA,0.00267 ± 0.0024
15,GGAGAGGAUACAAUACAACGUACUACCUCA,0.0976 ± 0.016
16,GGAGACCUUACUAUACAAGCUAGUACCUCA,0.471 ± 0.033
17,CCUCAGGAUACUAUACAAGCUACUACCUCA,1.29 ± 0.055
18,CCUCAGGAUACUAAACAACCUACUACCUCA,2.07 ± 0.12
19,CCUCUGGAUACUUUACAACGUACUACCUCA,0.921 ± 0.054
20,GGAGACCUUACUAUACAACCUACUACCUGA,0.777 ± 0.077

row,Sequence,pre-steady-state target cleavage rate
1,GGAGACCUAACUAUACAACCUACUUCCUGA,0.0085 ± 0.0052
2,GGAGACCAUACUAUACAAGCAACUACCUCA,0.0294 ± 0.0054
3,GGAGACCUAUCUAUACAACCUUCUACCUGA,0.0346 ± 0.0072
4,GGAGUGGAUACUAUUCAACCUACUACCUCA,1.57 ± 0.087
5,GGAGACGAUACUAUACAACCAACUACCUGA,0.0948 ± 0.012
6,GGAGUGGAUACUUUUCAACCUACUACCUCA,1.17 ± 0.11
7,GCUCUGGAUACAUUACAACCUACUACCUCA,1.43 ± 0.1
8,GGAGACCUUACUAUAGAACCUUCUACCUCA,0.176 ± 0.022
9,GGACUGGAUACUUACAACCUACUACCUCA,0.994 ± 0.14
10,GGUCUGGAUACUAUACAGCCUACUACCUCA,0.726 ± 0.032
11,GGACUGGAUACUAUACAACCAACUACCUGA,0.0355 ± 0.0066
12,GCUCUGGAUAGUAUACAACGUACUACCUCA,0.539 ± 0.039
13,GGUCUGGAUAGUAAACAACCUACUACCUCA,0.676 ± 0.053
14,CCUCUGGAUACUAUACAACGUACUAGCUCA,0.572 ± 0.054
15,GCUCUGGAAACUAUACAACCAACUACCUCA,0.171 ± 0.022
16,CCUCUGGAAACUAUACAAGCUACUACCUCA,1.49 ± 0.068
17,GGAGACCUUACUAUACAACCUACUACCUCCA,1.21 ± 0.071
18,GGAGAGGAUACUAUACUACCAACUACCUCA,0.0289 ± 0.0042
19,GGAGACCUAUGAUAUCAACCUACUACCUACA,< 0.0001
20,GGUCUGGAUACUUAACAACCUACUACCUCA,1.23 ± 0.12
